50 compounds from paper PMC12040169 (PLOS Biology, 2025) can be followed below.

Molecules are shown by their SMILES. Some of the results follow.

The assay has as its system T1, C. trachomatis L2/434/Bu expressing GFP (CTL2-GFP).
T1 construct: L2/434/Bu GFP intracellular growth in HeLa cells
Also noted: species or system HeLa; C. trachomatis total inclusion area by high-content imaging, normalised to DMSO. The settings on record: total inclusion area; 28.5 h, 10 µM; inhibitor. Summed up:
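Imaging read-out: GFP inclusions and Hoechst nuclei captured by high-content imaging after fixation. Inclusion area/number = chlamydial growth; nuclei count = host cell viability. MIC calculated per earlier method.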
Consider `CCOc1ccsc1C(=O)Nc1cc(C)ccn1` [CBK004029], for which the “% of control remaining” value amounted to 18.8208.

In the case of `C[C@H]1[C@@H]2[C@@H](O)C([C@H](C)C(=O)NCc3ccccn3)CC[C@@]2(C)CC[C@@H]1NC(=O)C1CC1` (some centres unmarked) [CBK289445], the “% of control remaining” value is on record as 124.889.

Turning to `COCCNc1nc(-c2cccc(-c3ccccc3)c2)cnc1N` [CBK063474], the “% of control remaining” value is 146.749.

On to `COc1ccc(C)cc1S(=O)(=O)N(CC(=O)O)Cc1ccccc1` [CBK267847], for which the “% of control remaining” value is 84.2687.

Turning to `COc1cccc(CC(=O)N2CCCC2c2cc(Nc3nc(C)cc(C)n3)cc(C)n2)c1` (centres unmarked) [CBK285999], the “% of control remaining” value stood at 113.085.

As to `Clc1ccc(OCc2ccccc2)c(CNCCN2CCOCC2)c1` [CBK278162C], the “% of control remaining” value is 78.3864.

Turning to `CC(C)c1nsc(NCCc2nnc3n2CCCC3)n1` [CBK306425], the “% of control remaining” value was 89.8197.

In the case of `CCC(CC)C(=O)N(C)c1c(C)nc2ccc(C(=O)Nc3cccc(NS(C)(=O)=O)c3)cn12` [CBK146526], the “% of control remaining” value is 106.741.

Turning to `O=C(NCCN1CCOCC1)C1(c2ccccc2)CCCC1` [CBK149538], the “% of control remaining” value is given as 100.21.

Regarding `COC1C(O)C(CO)OC1n1cc(F)c(Oc2c(C)cc(C)cc2C)nc1=O` (centres unmarked) [CBK201279], the “% of control remaining” value is reported as 94.4182.

As for `CC(=O)c1nnn(-c2ccc(Cl)cc2Cl)c1C` [CBK085972], the “% of control remaining” value was 59.4093.

As to `CCOC(=O)c1ccc(NC(=O)C2CC(=O)NC(Nc3nc4ccccc4s3)=N2)cc1` (centres unmarked) [CBK264396], the “% of control remaining” value worked out at 95.4334.

Consider `CC(C)C[C@@H]1N[C@H](C(=O)N2CCN(c3ncccn3)CC2)Cc2cn(C)c3cccc1c23` [CBK289421], for which the “% of control remaining” value was determined as 98.6139.

`FC(F)(F)c1ccnc(OCCNc2ccccc2)n1` [CBK115839]: the “% of control remaining” value stood at 84.6574.

For `CC(C)(N)C(=O)N1CC(C(=O)N2CC3(CCN(S(C)(=O)=O)CC3)c3ccccc32)C(c2cc3ccccc3o2)C1` (centres unmarked) [CBK136734T], the “% of control remaining” value came to 57.1928.

Take `CCC1c2ccc(C)n2CCN1Cc1cnc(C)n1C` (centres unmarked) [CBK283038]: the “% of control remaining” value is listed as 91.6721.

Take `CC(C)n1nccc1C(=O)NCC(c1ccc(F)cc1)N1CCCC1` (centres unmarked) [CBK283025]: the “% of control remaining” value was determined as 98.6479.

Consider `CC(=O)Nc1ccc(CNC(=O)c2cccnc2O)cc1` [CBK304559], for which the “% of control remaining” value is reported as 81.0332.

`O=C(c1ccccc1F)N1C[C@H](c2ccsc2)[C@H]2CN(Cc3ccccc3)CC[C@H]21` [CBK285655]: the “% of control remaining” value is 81.4815.

`NC(=O)c1cc(-c2ccccc2)sc1NC(=O)C(Cc1ccccc1)N1C(=O)c2ccccc2C1=O` (centres unmarked) [CBK265843]: the “% of control remaining” value was 103.198.

`CN(C)CCCNC(=O)c1cc2c(n(-c3ccc(Cl)c(Cl)c3)c1=O)CC(C)(C)CC2=O` [CBK293952]: the “% of control remaining” value is reported as 103.584.

Turning to `CCc1ccc(C2=CC(c3cccc(C)c3)n3nnnc3N2)cc1` (centres unmarked) [CBK268095], the “% of control remaining” value stood at 74.6686.

On to `Cc1ccc2c(c1)CCCN2C(=O)c1cccnc1NCc1ccc2c(c1)OCO2` [CBK160113], for which the “% of control remaining” value is on record as 81.8329.

With `Cc1cccc(CN2CCC(NC(=O)c3cccc4nn[nH]c34)CC2)c1` [CBK305411], the “% of control remaining” value is recorded as 104.384.

`Cc1cc(COC(=O)N2CCCC(C(F)(F)F)C2)cc(C)n1` (centres unmarked) [CBK200150]: the “% of control remaining” value is listed as 39.7561.

Regarding `Cc1cc2nc(-c3ccccn3)[nH]c2cc1C` [CBK000122], the “% of control remaining” value is listed as 16.707.

On to `COc1ccc(O)c(CN2CCC(N3CCCCC3)CC2)c1` [CBK261849], for which the “% of control remaining” value was 98.3321.

Turning to `O=C1Nc2c(cnn2-c2ccccc2Cl)C2=NCCCN12` [CBK283331], the “% of control remaining” value was 98.4057.

With `Cc1noc(C)c1C(=O)N1CCN(c2ccccc2)CC1` [CBK200165], the “% of control remaining” value amounted to 95.8911.

With `Cc1ccc(NC(=O)Cn2cnc3c(=O)n(C)c(=O)n(C)c32)c(O)c1` [CBK267002], the “% of control remaining” value is listed as 96.6042.

On to `CC(=O)NCCNC(=O)c1ccc(-c2ccccc2)nc1NCCc1ccccn1` [CBK076595], for which the “% of control remaining” value is given as 103.699.

For the compound `CN(CC(=O)O)C(=O)c1ccc(Oc2cccc(Br)c2)nc1` [CBK306485], the “% of control remaining” value is listed as 49.7509.

On to `OC1(c2cccnc2)C2CCCC1CN(Cc1ccc(F)cc1)C2` (centres unmarked) [CBK285204], for which the “% of control remaining” value turned out to be 85.2771.

As to `NC(=O)C1(Cc2cccc(-c3cccs3)c2)CCN(C(=O)Cc2ccccc2)CC1` [CBK286272], the “% of control remaining” value was found to be 65.8063.

With `COC(=O)c1nc(Cl)c(Cl)nc1NS(=O)(=O)c1cccc(Cl)c1C` [CBK004709], the “% of control remaining” value is on record as 86.5417.

As for `O=c1[nH]c2ncc(-c3ccccc3)nc2n1CCCN1CCOCC1` [CBK064805], the “% of control remaining” value is given as 91.1072.

Consider `Cn1c(COc2cncc(Cl)n2)cc2ccccc21` [CBK176002], for which the “% of control remaining” value was determined as 62.8764.

Turning to `O=C1NC2=C(C(=O)N(CCN3CCCC3)C2)C(c2ccccc2)N1` (centres unmarked) [CBK283493], the “% of control remaining” value is 80.4869.

In the case of `c1ccc(Nc2nccc(C3CCCN(Cc4ccc5[nH]ccc5c4)C3)n2)nc1` (centres unmarked) [CBK286093], the “% of control remaining” value is on record as 104.106.

`COc1ccccc1C(=O)Nc1nc2ccc(NC(C)=O)cc2s1` [CBK287303]: the “% of control remaining” value is recorded as 104.984.

Turning to `CN1CCC(=NNC(=O)c2ccc(N(Cc3ccccc3)S(C)(=O)=O)cc2)CC1` [CBK262742], the “% of control remaining” value is 111.155.

As to `Cn1c(SCC(=O)Nc2ccc(Oc3ccc(Cl)cc3)cc2)nnc1-c1ccncc1` [CBK269654], the “% of control remaining” value was 73.805.

As to `c1cnc(NCc2cc3n(n2)CCN(CC2CCCCO2)C3)cn1` (centres unmarked) [CBK306891], the “% of control remaining” value came to 88.1154.

As to `O=C(Nc1[nH]nc(O)c1Cc1c(Cl)cccc1Cl)C1CCCCC1` [CBK084558], the “% of control remaining” value is 108.489.

Take `Nc1nc2c(cnn2[C@H]2C[C@@H](O)[C@@H](CO)O2)c(=O)[nH]1` [CBK201223]: the “% of control remaining” value is given as 123.504.

Turning to `C=CCc1c(O)nc(SCC(=O)N2CCOCC2)[nH]c1=O` [CBK073301], the “% of control remaining” value is listed as 102.604.

As for `Cc1ccc(N(CC(=O)N/N=C/c2ccccc2)S(=O)(=O)c2ccccc2)cc1` [CBK262090], the “% of control remaining” value is on record as 98.1645.

On to `Cc1cc(C(F)(F)F)nn1CC(=O)Nc1sc2c(c1C#N)CCC(C)C2` (centres unmarked) [CBK304619], for which the “% of control remaining” value was determined as 55.2793.

With `Cc1csc(Sc2nccnc2NC(C)C)n1` [CBK115203], the “% of control remaining” value came out at 108.658.

As for `c1ccc(Oc2ccc(Nc3cccc(-c4ccc(N5CCOCC5)cc4)n3)cc2)cc1` [CBK036986], the “% of control remaining” value is given as 129.751.
